# Laboratory results published in patent US20250197482A1.
# Target: BG505 DS-SOSIP.664 Env trimer (HIV-1)
# Assay: ITC, 37 C, PBS pH 7.4, antibody titrated into trimer
binder,measurement,value
CAP256.J3LS (bispecific antibody) heavy: QVQLVESGGGVVQPGTSLRLSCAASQFRFDGYGMHWVRQAPGKGLEWVASISHDGIKKYHAEKVWGRFTISRDNSKNTLYLQMNSLRPEDTALYYCAKDLREDECEEWWSDYYDFGAQLPCAKSRGGLVGIADNWGQGTMVTVSS[human IgG1 constant region with changes left out] light: EVQLVESGGGLVQAGGFLELSCELRGSIFNQYAMAWFRQAPGKEREFVAGMGAVPHYGEFVKGRFTISRDNAKSTVYLQMSSLEPEDTAIYFCARSKSTYISYNSNGYDYWGQGTQVTVSSGGSGGGGSGGGGSGGQSVLTQPPSVSAAPGQKVTISCSGNTSNIGNNFVSWYQQRPGRAPQLLIYETDKRPSGIPDRFSASKSGTSGTLAITGLQTGDEADYYCATWAASLSSARVFGTGTQVIVLGQPKVNPTVTLFPPSSEELQANKATLVCLISDFYPGAVTVAWKADSSPVKAGVETTTPSKQSNNKYAASSYLSLTPEQWKSHRSYSCQVTHEGSTVEKTVAPTECS,-TΔS,41.2 kcal/mol
same,Kd,10 nM
same,N (stoichiometry) (Half-IgG per Trimer),1
same,ΔG,-11.3 kcal/mol
same,ΔH,-52.5 kcal/mol
